Data taken from the supplement of paper PMC3334620.
Whole data set: some 33,000 sequences, median “E-score (-0.5 to 0.5)” near -0.036, cut for the highest 2% near 0.37. Some of the results follow.

The sequences below were run against T1, Yer064c (UniProt P40041) (assay: PBM E-score (8-mer binding enrichment) (E-score (-0.5 to 0.5)); higher = stronger / more preferred TF binding; most listed sequences are background and not binding sites). Conditions: protein concentration: 200 nM; construct: GST-full length.
T1 sequence: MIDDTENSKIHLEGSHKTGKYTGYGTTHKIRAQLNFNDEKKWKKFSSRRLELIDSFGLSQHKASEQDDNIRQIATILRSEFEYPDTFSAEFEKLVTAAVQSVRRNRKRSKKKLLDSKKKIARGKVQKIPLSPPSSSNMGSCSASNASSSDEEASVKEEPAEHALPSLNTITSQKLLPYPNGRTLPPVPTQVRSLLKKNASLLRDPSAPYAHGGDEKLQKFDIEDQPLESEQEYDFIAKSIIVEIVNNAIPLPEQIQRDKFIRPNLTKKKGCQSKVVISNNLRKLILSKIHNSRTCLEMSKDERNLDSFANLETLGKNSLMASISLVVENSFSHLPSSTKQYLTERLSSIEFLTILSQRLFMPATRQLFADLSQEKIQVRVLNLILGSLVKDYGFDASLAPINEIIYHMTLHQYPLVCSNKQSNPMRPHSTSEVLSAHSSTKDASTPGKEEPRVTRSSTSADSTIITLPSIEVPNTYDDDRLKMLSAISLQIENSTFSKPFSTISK
How it was run: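 E-scores (a modified Wilcoxon-Mann-Whitney statistic) were assigned by the Universal PBM Analysis Suite to every ungapped eight-base word pooled with its reverse complement. The input came from universal all-10-mer Agilent arrays made double-stranded by primer extension and probed with GST-tagged yeast transcription factors at about 100-200 nM. Fluorescent anti-GST detected bound protein, and masliner normalised the scans.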
For AGCTCGAG, the “PBM E-score” value was -0.183. With CGTATACG the “PBM E-score” value was -0.0729. AACTAGAC was tested, and the “PBM E-score” value was 0.107. GTCATATA was tested, and the “PBM E-score” value was 0.309. For GAGCGCAC, the “PBM E-score” value was -0.187. For GAATTTCC, the “PBM E-score” value was -0.2. With ATCAGGCC the “PBM E-score” value was 0.0716. CAGAGGCG was tested, and the “PBM E-score” value was -0.128. TAGTTACA was tested, and the “PBM E-score” value was 0.0285. In the case of CAGTCTTC, the “PBM E-score” value is reported as 0.294. With AAGTGAAT the “PBM E-score” value was 0.145. For CTCGCCAG, the “PBM E-score” value was -0.218. In the case of CACCCGGC, the “PBM E-score” value is reported as -0.174. For GTCCGGAC, the “PBM E-score” value was -0.0563. For AGAATGAC, the “PBM E-score” value was 0.246. ACCAATCG was tested, and the “PBM E-score” value was -0.136. In the case of GTTCCAAC, the “PBM E-score” value is reported as 0.0414. For ACTCGCTG, the “PBM E-score” value was 0.128. ACCTCAGG was tested, and the “PBM E-score” value was 0.0242. In the case of CACTCGAA, the “PBM E-score” value is reported as 0.212. With GGCTATCA the “PBM E-score” value was -0.11. For AGGGAGGG, the “PBM E-score” value was -0.254. CTCTACCA was tested, and the “PBM E-score” value was -0.14. With AGTAGTGA the “PBM E-score” value was 0.17. In the case of AGAGGGAT, the “PBM E-score” value is reported as -0.27. For GCGGACAA, the “PBM E-score” value was 0.0889. For AAGAGTTG, the “PBM E-score” value was 0.0206. With AGTATGCA the “PBM E-score” value was 0.108. With CCAATAAA the “PBM E-score” value was 0.0533. GACCTGTA was tested, and the “PBM E-score” value was -0.193. In the case of AGTCCGGA, the “PBM E-score” value is reported as 0.079. For AGTAGCGA, the “PBM E-score” value was 0.123. GGAAGCTA was tested, and the “PBM E-score” value was -0.204. CTGGTTGA was tested, and the “PBM E-score” value was 0.116. CAGTATGA was tested, and the “PBM E-score” value was 0.265. In the case of ACGGCATG, the “PBM E-score” value is reported as -0.147. CACCACGA was tested, and the “PBM E-score” value was 0.0612. AGACACAG was tested, and the “PBM E-score” value was 0.136. For CGGTATGC, the “PBM E-score” value was -0.224. In the case of AAAATAAT, the “PBM E-score” value is reported as 0.197. In the case of CTCGATAA, the “PBM E-score” value is reported as 0.22. In the case of AAAAGAAC, the “PBM E-score” value is reported as -0.144. With AGACACAT the “PBM E-score” value was 0.131. In the case of CCCCGTCG, the “PBM E-score” value is reported as -0.211. For ACATTTGG, the “PBM E-score” value was -0.208. In the case of GCACAGAC, the “PBM E-score” value is reported as 0.0471. With CGAAGGTA the “PBM E-score” value was -0.142. GTAGCTGA was tested, and the “PBM E-score” value was 0.0597. For ATAAAGGA, the “PBM E-score” value was -0.105. In the case of ATGGGTGG, the “PBM E-score” value is reported as -0.00495. For ACGCAGAC, the “PBM E-score” value was 0.218. With ACCGTTCA the “PBM E-score” value was -0.179. ATGTGACG was tested, and the “PBM E-score” value was -0.156. For GTGCAAGA, the “PBM E-score” value was -0.00957. For ATTATTCC, the “PBM E-score” value was -0.0627. For ACTCACAT, the “PBM E-score” value was 0.35. With GCCCGCCC the “PBM E-score” value was -0.312. For CACAGTAA, the “PBM E-score” value was 0.131. In the case of GTTAACCA, the “PBM E-score” value is reported as 0.279. For GAAAGTGC, the “PBM E-score” value was -0.183. GCTGAGCA was tested, and the “PBM E-score” value was 0.064. In the case of CTTTAAGA, the “PBM E-score” value is reported as 0.125. For GAGCGACA, the “PBM E-score” value was 0.00075. With TCGAGTAA the “PBM E-score” value was 0.11. For AGCTGTTG, the “PBM E-score” value was 0.0703. With ATGAGAAG the “PBM E-score” value was -0.0202. AGGCGCCT was tested, and the “PBM E-score” value was -0.0389. With ACGCGAGC the “PBM E-score” value was -0.0659. For GAGGTCCA, the “PBM E-score” value was -0.213. CAAACTGG was tested, and the “PBM E-score” value was -0.152. AACGAATA was tested, and the “PBM E-score” value was -0.203. In the case of CACCCTCG, the “PBM E-score” value is reported as -0.0423. With GCAGTAGC the “PBM E-score” value was -0.281. ACGGGGAT was tested, and the “PBM E-score” value was -0.0995. In the case of CTTGGGTC, the “PBM E-score” value is reported as 0.0527. With TTGGAAAA the “PBM E-score” value was -0.178. For AGGCAATA, the “PBM E-score” value was 0.0155. CGAGGCCG was tested, and the “PBM E-score” value was -0.232. For AAGTCTGA, the “PBM E-score” value was 0.173. For CTAGGGAC, the “PBM E-score” value was -0.145. For GTGTCTCA, the “PBM E-score” value was 0.323. CACAGAAC was tested, and the “PBM E-score” value was 0.00675. For CAGCCATA, the “PBM E-score” value was -0.0611. For AGTACGAC, the “PBM E-score” value was 0.202. With CTTGTCAA the “PBM E-score” value was 0.104. With AATAATAT the “PBM E-score” value was 0.0658.
